The results in this text go back to a collection of fitness landscapes (doi:10.1038/s41467-024-54723-y).

Whole data set: some 18,000 sequences, median “TetR repression strength (sort-seq, GFP reporter)” near 0.23, cut for the highest 2% near 0.68. This is one part of the list.

Sequence of UniProt P04483 (P04483 whole entry): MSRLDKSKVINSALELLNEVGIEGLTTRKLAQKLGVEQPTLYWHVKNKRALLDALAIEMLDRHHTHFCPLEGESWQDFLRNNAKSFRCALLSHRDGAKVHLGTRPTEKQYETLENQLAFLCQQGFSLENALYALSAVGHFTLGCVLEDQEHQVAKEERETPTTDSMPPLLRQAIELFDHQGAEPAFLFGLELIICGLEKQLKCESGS

The experiment concerns the target TetR (class B, Tn10) (UniProt P04483). Nature of the experiment: TetR repression strength (sort-seq, GFP reporter) (relative to tetO2 = 1); higher = stronger repression. To be noted: E. coli. The method, boiled down:
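Repression strength is the top bin index plus one minus the read-weighted mean bin, relative to the unaltered operator's value. A low-copy library in E. coli SIG10-MAX randomized eight operator positions between a constitutive promoter and sfGFP, with TetR expressed constitutively; cells grew 5 h at 37 °C in LB with 50 µg/mL chloramphenicol and 10^6 were FACS-sorted into 13 bins that were each Illumina-sequenced. Three independent transformations were averaged, keeping only members with ≥30 reads in all replicates and CV ≤0.5.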
In turn, TCCCATGAAGTTGTAGAGA returned a TetR repression strength of 0.515.

In the case of TCCCTGAAAGTTTTTGAGA, the TetR repression strength amounted to 0.117.

The sequence TCCCATACAGTAGGTGAGA yielded a TetR repression strength of 0.158.

For the sequence TCCCGCTTAGTGTGGGAGA, the TetR repression strength is 0.271.

Consider TCCCGTTAAGTTTAAGAGA, for which the TetR repression strength was 0.504.

Sequence TCCCCGGGAGTCGGAGAGA came in with a TetR repression strength of 0.267.

On to TCCCCGGCAGTACGTGAGA, for which the TetR repression strength was 0.372.

The sequence TCCCGTGAAGTCCCGGAGA returned a TetR repression strength of 0.26.

In turn, TCCCTCTTAGTGGGTGAGA returned a TetR repression strength of 0.123.

As to TCCCATCCAGTAGTCGAGA, the TetR repression strength was found to be 0.2.

Take TCCCTGGGAGTCCATGAGA: the TetR repression strength turned out to be 0.395.

In the case of TCCCCCGGAGTCAGCGAGA, the TetR repression strength amounted to 0.533.

The sequence TCCCAGACAGTGATGGAGA returned a TetR repression strength of 0.213.

With TCCCTAAAAGTGCGTGAGA, the TetR repression strength was determined as 0.299.

For TCCCGAGGAGTGTGCGAGA, the TetR repression strength amounted to 0.252.

TCCCATAGAGTGAACGAGA had a TetR repression strength of 0.295.

Regarding TCCCAGCGAGTAACCGAGA, the TetR repression strength was found to be 0.104.

Sequence TCCCGCGGAGTGACGGAGA showed a TetR repression strength of 0.38.

For TCCCGATTAGTTTGCGAGA, the TetR repression strength came out at 0.299.

Take TCCCGTATAGTCCTTGAGA: the TetR repression strength is 0.415.

TCCCGCAGAGTTAACGAGA: the TetR repression strength came out at 0.0942.

Sequence TCCCATTGAGTCTAGGAGA registered a TetR repression strength of 0.177.

The sequence TCCCTGTCAGTGGTAGAGA displayed a TetR repression strength of 0.476.

Sequence TCCCTAGTAGTTTGAGAGA came in with a TetR repression strength of 0.225.

As for TCCCACCAAGTGAAAGAGA, the TetR repression strength was 0.405.

In turn, TCCCCCACAGTCGTGGAGA gave a TetR repression strength of 0.0987.

With TCCCGGATAGTTATGGAGA, the TetR repression strength was 0.238.

TCCCCGCTAGTTGTAGAGA returned a TetR repression strength of 0.253.

As to TCCCGAGGAGTCGGCGAGA, the TetR repression strength was 0.0782.

Sequence TCCCTGAAAGTAGCAGAGA gave a TetR repression strength of 0.302.

For the sequence TCCCTCAGAGTGTGGGAGA, the TetR repression strength stood at 0.165.

Sequence TCCCCTCTAGTACGTGAGA gave a TetR repression strength of 0.207.

Turning to TCCCAAGTAGTCACGGAGA, the TetR repression strength turned out to be 0.295.

Regarding TCCCTGCAAGTAGAGGAGA, the TetR repression strength worked out at 0.42.

For the sequence TCCCGGCGAGTCAATGAGA, the TetR repression strength came to 0.374.

TCCCGTTCAGTTGCTGAGA returned a TetR repression strength of 0.512.

TCCCGTTAAGTGGGAGAGA yielded a TetR repression strength of 0.398.

The sequence TCCCATGCAGTCTACGAGA came in with a TetR repression strength of 0.226.

The sequence TCCCGGGCAGTCCCTGAGA displayed a TetR repression strength of 0.564.

Turning to TCCCTGCGAGTTCGGGAGA, the TetR repression strength was determined as 0.142.

As for TCCCTGACAGTCTCGGAGA, the TetR repression strength was 0.212.

As to TCCCTGTCAGTTTGGGAGA, the TetR repression strength is 0.459.

With TCCCTTTGAGTGTGGGAGA, the TetR repression strength was found to be 0.194.

With TCCCTGTCAGTATCAGAGA, the TetR repression strength was 0.0926.

Turning to TCCCATAAAGTACGCGAGA, the TetR repression strength amounted to 0.12.

As to TCCCCGGGAGTGTGTGAGA, the TetR repression strength was found to be 0.264.

TCCCATCGAGTGCCCGAGA returned a TetR repression strength of 0.294.

TCCCTCTAAGTAGTTGAGA had a TetR repression strength of 0.188.

As for TCCCGAATAGTCTTCGAGA, the TetR repression strength came to 0.

On to TCCCATCCAGTTACTGAGA, for which the TetR repression strength amounted to 0.311.

With TCCCCGTCAGTCTCGGAGA, the TetR repression strength is 0.642.

For TCCCAGACAGTGGAAGAGA, the TetR repression strength amounted to 0.107.

In turn, TCCCATCGAGTGGCTGAGA came in with a TetR repression strength of 0.294.

The sequence TCCCTGGGAGTAATTGAGA gave a TetR repression strength of 0.294.

TCCCGCGGAGTCCACGAGA: the TetR repression strength came out at 0.235.

TCCCGCTAAGTACTCGAGA came in with a TetR repression strength of 0.0895.

TCCCGAAGAGTTGTCGAGA came in with a TetR repression strength of 0.35.

Sequence TCCCCTACAGTACGGGAGA showed a TetR repression strength of 0.225.

Sequence TCCCTTGCAGTGTAAGAGA had a TetR repression strength of 0.524.

TCCCAGCCAGTCCGGGAGA yielded a TetR repression strength of 0.371.

TCCCAAGCAGTGACAGAGA registered a TetR repression strength of 0.432.

With TCCCCATGAGTACCTGAGA, the TetR repression strength stood at 0.264.

The sequence TCCCCAGTAGTAGGTGAGA yielded a TetR repression strength of 0.

TCCCTACGAGTCGGGGAGA came in with a TetR repression strength of 0.193.

In turn, TCCCCTTAAGTTAAGGAGA yielded a TetR repression strength of 0.173.

Consider TCCCCTAAAGTGCGCGAGA, for which the TetR repression strength came to 0.266.

TCCCGCGGAGTCTGCGAGA came in with a TetR repression strength of 0.191.

As for TCCCCCTCAGTTCATGAGA, the TetR repression strength came out at 0.305.

The sequence TCCCCGGGAGTGAAAGAGA displayed a TetR repression strength of 0.324.

In the case of TCCCTTGTAGTAATGGAGA, the TetR repression strength came to 0.273.

Sequence TCCCTTAGAGTCGTGGAGA returned a TetR repression strength of 0.168.

As for TCCCAGGGAGTCAAGGAGA, the TetR repression strength stood at 0.157.

In turn, TCCCAGTCAGTGCCAGAGA had a TetR repression strength of 0.168.

TCCCTACCAGTGTTTGAGA displayed a TetR repression strength of 0.396.

TCCCAACAAGTCGCAGAGA: the TetR repression strength worked out at 0.281.

Consider TCCCGCTTAGTCTCGGAGA, for which the TetR repression strength amounted to 0.187.

TCCCTATCAGTGGAAGAGA came in with a TetR repression strength of 0.722.

In the case of TCCCCCATAGTGCGCGAGA, the TetR repression strength amounted to 0.219.

With TCCCCCGCAGTACGAGAGA, the TetR repression strength turned out to be 0.467.

On to TCCCTGCCAGTTCGTGAGA, for which the TetR repression strength came to 0.128.

TCCCACCTAGTGGTGGAGA displayed a TetR repression strength of 0.406.

Turning to TCCCGTTCAGTAGTGGAGA, the TetR repression strength stood at 0.169.

TCCCTATAAGTATTAGAGA came in with a TetR repression strength of 0.419.

On to TCCCCGCCAGTTCATGAGA, for which the TetR repression strength was determined as 0.174.

As for TCCCTTAAAGTGTCGGAGA, the TetR repression strength stood at 0.46.

On to TCCCTCTTAGTCCCGGAGA, for which the TetR repression strength was 0.4.

The sequence TCCCGTGGAGTTTGTGAGA had a TetR repression strength of 0.352.

Take TCCCTCGGAGTTGTCGAGA: the TetR repression strength was 0.237.

TCCCTCCAAGTGTAGGAGA yielded a TetR repression strength of 0.056.

TCCCAATTAGTCCTCGAGA gave a TetR repression strength of 0.326.

Consider TCCCGAGTAGTATGCGAGA, for which the TetR repression strength is 0.0845.

TCCCGGTGAGTTAAAGAGA displayed a TetR repression strength of 0.246.

Regarding TCCCTGTCAGTACAGGAGA, the TetR repression strength stood at 0.118.

In the case of TCCCGCGGAGTGACTGAGA, the TetR repression strength came to 0.275.

TCCCAAAGAGTAGAGGAGA registered a TetR repression strength of 0.346.

In the case of TCCCTGTAAGTGTACGAGA, the TetR repression strength stood at 0.466.

The sequence TCCCCCAGAGTCCGCGAGA showed a TetR repression strength of 0.434.

As to TCCCTTTTAGTTGTCGAGA, the TetR repression strength came to 0.369.

As for TCCCATCGAGTGTAGGAGA, the TetR repression strength was 0.0954.

Turning to TCCCCGAAAGTGGGGGAGA, the TetR repression strength was determined as 0.257.

Sequence TCCCTAACAGTTTCTGAGA showed a TetR repression strength of 0.253.

In turn, TCCCAGGAAGTAGGCGAGA yielded a TetR repression strength of 0.191.

TCCCGTGGAGTAGCCGAGA: the TetR repression strength stood at 0.0713.

TCCCATTTAGTGGATGAGA came in with a TetR repression strength of 0.0386.

Take TCCCTGAGAGTCGTTGAGA: the TetR repression strength is 0.162.

In turn, TCCCGTGAAGTATCCGAGA gave a TetR repression strength of 0.289.

For TCCCAGAAAGTCATTGAGA, the TetR repression strength was 0.224.

Turning to TCCCGTCTAGTACGCGAGA, the TetR repression strength amounted to 0.233.

TCCCACGCAGTCGGTGAGA registered a TetR repression strength of 0.221.

Take TCCCGTACAGTTAGGGAGA: the TetR repression strength was determined as 0.149.

As for TCCCGATAAGTGTTAGAGA, the TetR repression strength came out at 0.417.

Turning to TCCCTGGGAGTCGGGGAGA, the TetR repression strength was determined as 0.273.

The sequence TCCCGTGGAGTGAAGGAGA came in with a TetR repression strength of 0.344.

Sequence TCCCGACTAGTATATGAGA yielded a TetR repression strength of 0.311.

On to TCCCGCACAGTGTAGGAGA, for which the TetR repression strength is 0.188.

Take TCCCCGCGAGTAGTGGAGA: the TetR repression strength was found to be 0.296.

On to TCCCGATAAGTGGCAGAGA, for which the TetR repression strength was found to be 0.218.

In the case of TCCCGAATAGTATAGGAGA, the TetR repression strength was 0.251.

TCCCTGCTAGTATCCGAGA displayed a TetR repression strength of 0.207.

For TCCCGTGGAGTTATAGAGA, the TetR repression strength was 0.155.

In the case of TCCCGGCCAGTGCAGGAGA, the TetR repression strength is 0.258.

Take TCCCGTTTAGTTACAGAGA: the TetR repression strength was determined as 0.213.

For the sequence TCCCCAATAGTATTTGAGA, the TetR repression strength is 0.42.

TCCCGCCTAGTTGCGGAGA had a TetR repression strength of 0.0507.

With TCCCGGATAGTCTCTGAGA, the TetR repression strength came to 0.00964.

For the sequence TCCCGTCTAGTTCGAGAGA, the TetR repression strength amounted to 0.378.

On to TCCCGTGAAGTGGCGGAGA, for which the TetR repression strength is 0.314.

TCCCACACAGTACGCGAGA displayed a TetR repression strength of 0.238.

In turn, TCCCGCTCAGTCTCTGAGA gave a TetR repression strength of 0.447.

On to TCCCAATGAGTGAATGAGA, for which the TetR repression strength amounted to 0.446.
